According to the supplement of paper PMC3334620:
Over roughly 33,000 sequences, “E-score (-0.5 to 0.5)” has its median near -0.041; the highest 2% begin near 0.37. This is one part of the list.

biological target: T1, Ecm22 (UniProt Q05958); assay: PBM E-score (8-mer binding enrichment) (E-score (-0.5 to 0.5)); higher = stronger / more preferred TF binding; most listed sequences are background and not binding sites; conditions: protein concentration: 200 nM; construct: GST-full length
T1 sequence: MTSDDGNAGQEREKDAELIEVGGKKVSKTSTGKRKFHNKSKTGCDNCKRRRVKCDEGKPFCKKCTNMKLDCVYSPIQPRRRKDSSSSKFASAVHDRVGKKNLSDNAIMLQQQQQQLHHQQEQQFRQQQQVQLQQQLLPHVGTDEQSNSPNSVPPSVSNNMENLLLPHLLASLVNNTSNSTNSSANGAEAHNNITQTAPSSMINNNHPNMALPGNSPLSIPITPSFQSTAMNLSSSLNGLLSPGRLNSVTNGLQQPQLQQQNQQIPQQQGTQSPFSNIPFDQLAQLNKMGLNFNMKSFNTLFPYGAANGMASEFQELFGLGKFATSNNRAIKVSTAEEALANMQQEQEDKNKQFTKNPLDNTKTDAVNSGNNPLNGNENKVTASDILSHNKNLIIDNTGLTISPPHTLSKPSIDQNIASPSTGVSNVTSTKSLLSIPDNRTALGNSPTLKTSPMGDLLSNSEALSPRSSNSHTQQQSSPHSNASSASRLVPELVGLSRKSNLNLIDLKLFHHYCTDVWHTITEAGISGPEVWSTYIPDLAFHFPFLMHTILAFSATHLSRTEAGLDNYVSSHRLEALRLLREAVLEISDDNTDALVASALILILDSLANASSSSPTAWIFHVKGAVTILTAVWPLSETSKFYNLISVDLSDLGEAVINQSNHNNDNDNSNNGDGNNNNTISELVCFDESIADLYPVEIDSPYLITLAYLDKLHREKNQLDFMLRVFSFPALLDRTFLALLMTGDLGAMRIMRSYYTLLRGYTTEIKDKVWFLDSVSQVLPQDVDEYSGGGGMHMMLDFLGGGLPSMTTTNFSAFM
Method in brief: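 GST-tagged yeast TFs (full-length or DNA-binding domain) were made by PURExpress in vitro transcription/translation and applied at about 100-200 nM to universal all-10-mer Agilent arrays. The arrays were made double-stranded by primer extension, on fresh or once-stripped slides. Bound protein was detected with fluorescent anti-GST, and scans were normalised with masliner. Each ungapped eight-base word, pooled with its reverse complement, received an E-score (modified Wilcoxon-Mann-Whitney statistic) from the Universal PBM Analysis Suite.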

| Sequence | PBM E-score |
| --- | --- |
| TCGTCAAA | 0.216 |
| CCCGTTAC | 0.139 |
| AAACACAG | -0.119 |
| CTACGGTA | 0.0823 |
| ACGAACTA | 0.326 |
| CTCTTCAA | -0.151 |
| GATTTTCC | -0.148 |
| AAACTGAC | 0.00573 |
| GTACTGTA | 0.196 |
| ATGGCGAC | -0.165 |
| TCGGTCCA | 0.219 |
| ACTAATAG | -0.106 |
| CCGCATTA | 0.12 |
| ATACCCTC | 0.032 |
| CTTTGTGC | -0.0392 |
| TCCACTCA | -0.126 |
| AGTTATGA | -0.112 |
| ATCGAGTA | 0.0689 |
| GTTGAGGA | 0.0743 |
| GTGTGCGA | 0.161 |
| CGGTCGAC | 0.1 |
| AAAATAAA | 0.0716 |
| ATTCAAAA | -0.0309 |
| CGGTTGTA | -0.00021 |
| TGATGCCA | 0.00385 |

| Sequence | PBM E-score |
| --- | --- |
| CGGCGAAC | 0.0771 |
| AGAGTGAT | -0.0259 |
| CTTTAACA | -0.151 |
| GTTAATTA | 0.216 |
| CTACTTTC | -0.0465 |
| ATGTTCTC | 0.00702 |
| ATGTCAGC | -0.00063 |
| ACGGTTCT | 0.0479 |
| AGCCGGGA | -0.105 |
| AACGGACG | 0.211 |
| CGCGGCGA | 0.017 |
| TCTGAACA | 0.0272 |
| CCAATAGG | -0.157 |
| ATGGTCTA | -0.229 |
| CTATTAGA | -0.0902 |
| GAAACGTC | -0.0173 |
| ACTAGTCA | -0.197 |
| CTCGCATA | 0.376 |
| AAGGGTTG | 0.0554 |
| AAATATCA | 0.0345 |
| AAGTTACC | 0.0251 |
| CTACGAAC | 0.369 |
| CCGGCCCA | -0.257 |
| CCCGATAC | 0.16 |
| GTGCCAAA | -0.0616 |

| Sequence | PBM E-score |
| --- | --- |
| ATACAGAT | -0.0539 |
| AGCGCCCG | 0.0524 |
| ACACCGTC | 0.0816 |
| CTTGGGAA | -0.0525 |
| CACGGCCC | -0.156 |
| CTAGTAGA | -0.00792 |
| AATAGAAC | -0.0269 |
| CCGCGCCA | -0.3 |
| CAGTTGAC | -0.0743 |
| GCGTTGAA | 0.218 |
| ATTTTCGA | -0.0346 |
| GATGTCCC | 0.0176 |
| GTGGTCTA | -0.146 |
| GCCTTAGC | -0.299 |
| GTCAGGAC | -0.208 |
| AACTAGAA | 0.0154 |
| CCTAACCC | -0.132 |
| ACGATGCT | 0.283 |
| GCAGGCCC | -0.191 |
| CTTCAACC | -0.187 |
| CCCATTCC | -0.0966 |
| ATATGGAC | -0.0698 |
| AAACTCCC | -0.0659 |
| AAGATTAG | -0.0338 |
| GCCCTGAA | -0.0693 |

| Sequence | PBM E-score |
| --- | --- |
| TGAACTCA | 0.0345 |
| CCTAAAGC | -0.156 |
| AATCGCTA | 0.0741 |
| ACCCAACG | -0.0334 |
| GGGAGTAC | -0.0395 |
| ATCCATAC | 0.0926 |
| GGGTAGAA | -0.096 |
| ATGAAATA | 0.0173 |
| ATCTACTA | -0.0724 |
| AGTCTCAG | -0.321 |
| ATGTTAAC | -0.0227 |
| AAGCCATG | -0.173 |
| ACTGTTTA | 0.025 |
| AACCCACC | -0.078 |
| CACTCAGG | -0.106 |
| AACATAAG | 0.00326 |
| GACACCGA | -0.0898 |
| AGCAGCTA | -0.106 |
| CCAATCGA | -0.00328 |
| GATACTTA | -0.131 |
| CGAATCTA | 0.036 |
| GATCCCCA | -0.0245 |
| TGGCAGAA | 0.0114 |
| CCCTGTTC | -0.187 |
| CAACTGGG | -0.248 |

| Sequence | PBM E-score |
| --- | --- |
| ATCTCGCG | 0.23 |
| GAGCACAC | -0.254 |
| CTTCCAAG | -0.151 |
| GTTGCATA | 0.127 |
| AGGCATGG | -0.217 |
| ACCCATAA | 0.00567 |
| GCTGCCCC | -0.134 |
| CAGTTAAC | -0.00325 |
| GCCCCCTA | -0.423 |
| AGATCGAG | -0.0338 |
| CACGCTAA | -0.0563 |
| CGCCCGCA | 0.0243 |
| AGCATGCC | -0.286 |
| GGAAGTCA | -0.14 |
| AGTGCCTG | -0.0894 |
| AAACGAGA | 0.463 |
| GGGGTCAA | 0.0871 |
| AATGCTTA | -0.221 |
| GCCCGGTA | -0.0773 |
| GGTTTCAA | -0.0823 |
| GTCGATCA | -0.0187 |
| ACTTTCTC | -0.157 |
| ATTTTCCG | 0.178 |
| CGTAAATA | 0.377 |
| AATCTTGA | -0.329 |

| Sequence | PBM E-score |
| --- | --- |
| ATTCGTTA | 0.309 |
| CGGACTGC | -0.0684 |
| AATGCATG | 0.0368 |
| ATTGAGCG | 0.164 |
| CGCGTGGA | 0.0564 |
| GTTAGGGA | 0.0493 |
| CGTGGCAG | -0.0719 |
| ATGACGAC | -0.101 |
| GTCAACCA | -0.0873 |
| ACTAAACA | -0.273 |
| CGTTTATC | 0.42 |
| ATCATCCC | -0.131 |
| AACCAACA | 0.0859 |
| CGTCATTA | -0.109 |
| ATAGTGGG | -0.221 |
| ACCACGCG | 0.0976 |
| AGTGGTGC | 0.0925 |
| ACCCCCTG | -0.194 |
| AGGTGAGC | -0.0437 |
| GCCTGACC | -0.0841 |
| ACGTCTAG | -0.0254 |
| CCTGGCTC | 0.0716 |
| GCCTAGGC | -0.354 |
| AGTGACCG | -0.0274 |
| ACTCACGG | 0.034 |

| Sequence | PBM E-score |
| --- | --- |
| CAGTAAGA | 0.107 |
| ACCGTGGA | -0.081 |
| CCGACGAA | 0.105 |
| AGCCTGCC | 0.0185 |
| AACGAACA | 0.409 |
| GGCGCCGA | -0.0855 |
| CAACGTCA | -0.111 |
| TCCAAAAA | -0.191 |
| GAGACCGA | 0.0824 |
| GTAATGGA | -0.00921 |
| GACCATGC | 0.00018 |
| AAGACTTC | -0.136 |
| CCGATACG | 0.326 |
| ACTCCTGG | -0.334 |
| CCGTCAGG | -0.0998 |
| GAATTGGA | -0.0715 |
| CGTTGCCC | 0.22 |
| CCCCTAAG | -0.236 |
| CACGTAGC | -0.026 |
| CATGAACC | -0.06 |
| TTAATAAA | 0.169 |
| TGACTCCA | -0.349 |
